First the molecules themselves.
B1: GPR68, Q15743 (parent)
chain: MGNITADNSSMSCTIDHTIHQTLAPVVYVTVLVVGFPANCLSLYFGYLQIKARNELGVYLCNLTVADLFYICSLPFWLQYVLQHDNWSHGDLSCQVCGILLYENIYISVGFLCCISVDRYLAVAHPFRFHQFRTLKAAVGVSVVIWAKELLTSIYFLMHEEVIEDENQHRVCFEHYPIQAWQRAINYYRFLVGFLFPICLLLASYQGILRAVRRSHGTQKSRKDQIQRLVLSTVVIFLACFLPYHVLLLVRSVWEASCDFAKGVFNAYHFSLLLTSFNCVADPVLYCFVSETTHRDLARLRGACLAFLTCSRTGRAREAYPLGAPEASGKSGAQGEEPELLTKLHPAFQTPNSPGSGGFPTGRLA

Scores with a large standard error are left out. Not listed are two conditions whose scores span a narrow range. Read del as a deletion of the residues named and ins as an insertion between two positions. For some assays here: How much ogerin was present is not stated here.

In series [1] the parent is B1. Nature of the series: cAMP reporter score (Enrich2 score, wild type = 0); higher = more signal; HEK293T, FACS bins.
Variants of B1 are the subject of series [2]. Nature of the series: surface expression score (Enrich2 score, wild type = 0); higher = more signal; HEK293T, FACS bins.

Regarding Y44F, the cAMP reporter score in series [1] (pH 5.5) was 0.08; in series [1] (pH 6, modulator: ogerin), 0.892; in series [1] (pH 6.5, modulator: ogerin), -0.222. Also, the surface expression score in series [2] is -0.647.
As to Y44D, the cAMP reporter score in series [1] (pH 5.5) was -1.57; in series [1] (pH 6), -1.07; in series [1] (pH 6, modulator: ogerin), -1.73; in series [1] (pH 6.5, modulator: ogerin), -2.74. The surface expression score in series [2] is -1.79.
As for Y44A, the cAMP reporter score in series [1] (pH 5.5) was -0.116; in series [1] (pH 6) it was -1.25; in series [1] (pH 6, modulator: ogerin), -0.605; in series [1] (pH 6.5, modulator: ogerin), -0.299. Also, the surface expression score in series [2] is -1.72.
Taken in the same sequence, the figures for Y44T were -0.642, -0.378, -0.618, -0.799 and -2.19.
Taken in the same sequence, the figures for Y44V were -0.716, 0.556, -0.887, -0.478 and -1.65.
As to Y44N, the cAMP reporter score in series [1] (pH 5.5) was -1.36; in series [1] (pH 6, modulator: ogerin), -2.52; in series [1] (pH 6.5, modulator: ogerin), -1.49. For the same variant, the surface expression score in series [2] is -1.8.
Y44C: the cAMP reporter score was -1.32 in series [1] (pH 5.5); 0.202 in series [1] (pH 6); -0.246 in series [1] (pH 6, modulator: ogerin); -0.668 in series [1] (pH 6.5, modulator: ogerin). Also, in series [2], the surface expression score is -1.76.
Consider Y44W, for which the cAMP reporter score in series [1] (pH 5.5) is -1.07; in series [1] (pH 6) it was -0.549; in series [1] (pH 6, modulator: ogerin) it was -1.32; in series [1] (pH 6.5, modulator: ogerin), -0.804. The surface expression score in series [2] is -2.79.
With Y44P, the cAMP reporter score is -1.28 in series [1] (pH 5.5); -1.2 in series [1] (pH 6); -2.05 in series [1] (pH 6, modulator: ogerin); -1.51 in series [1] (pH 6.5, modulator: ogerin). Besides, the surface expression score in series [2] is -1.98.
Taken in the same sequence, the figures for Y44Q were -1.67, -0.452, -1.44, -1.49 and -2.58.
The like results for Y44H were, in that order, -0.402, -0.918, -1.88, -0.519 and -2.82.
Y44E: the cAMP reporter score in series [1] (pH 5.5) was -1.33; in series [1] (pH 6, modulator: ogerin) it was -1.91; in series [1] (pH 6.5, modulator: ogerin) it was -2.25. The surface expression score in series [2] was -1.96.
Regarding L41_S42insG, the cAMP reporter score is -1.29 in series [1] (pH 5.5); -0.374 in series [1] (pH 6); -2.19 in series [1] (pH 6, modulator: ogerin); -1.51 in series [1] (pH 6.5, modulator: ogerin). Further, the surface expression score in series [2] was -2.32.
G46_Y47insGS: the cAMP reporter score in series [1] (pH 5.5) was -1.73; in series [1] (pH 6), -0.745; in series [1] (pH 6.5, modulator: ogerin), -1.24. Besides, the surface expression score in series [2] was -3.04.
With L43del, the cAMP reporter score in series [1] (pH 5.5) was -1.42; in series [1] (pH 6) it was -1.03; in series [1] (pH 6, modulator: ogerin) it was -1.93; in series [1] (pH 6.5, modulator: ogerin), -1.67. Moreover, in series [2], the surface expression score was -1.89.
Taken in the same sequence, the figures for G46del were -0.757, -1.3, -1.26, -0.014 and -1.96.
Taken in the same sequence, the figures for N39_L41del were -0.705, 0.015, -1.25, -0.652 and -2.22.
Take F36L: the cAMP reporter score in series [1] (pH 5.5) is -0.697; in series [1] (pH 6), 0.077; in series [1] (pH 6, modulator: ogerin), -0.426; in series [1] (pH 6.5, modulator: ogerin) it was -0.097. The surface expression score in series [2] is -0.455.
Consider F36P, for which the cAMP reporter score in series [1] (pH 5.5) is -1.48; in series [1] (pH 6), -0.011; in series [1] (pH 6.5, modulator: ogerin), -0.472. Further, the surface expression score in series [2] is -2.56.
Consider F36Q, for which the cAMP reporter score is -0.415 in series [1] (pH 5.5); -1.81 in series [1] (pH 6, modulator: ogerin); -1.46 in series [1] (pH 6.5, modulator: ogerin). In addition, in series [2], the surface expression score is -1.18.
Regarding F36G, the cAMP reporter score was -0.865 in series [1] (pH 5.5); -0.753 in series [1] (pH 6); -1.37 in series [1] (pH 6, modulator: ogerin); -1.11 in series [1] (pH 6.5, modulator: ogerin). In addition, the surface expression score in series [2] was -2.51.
As to F36M, the cAMP reporter score in series [1] (pH 5.5) was 0.625; in series [1] (pH 6), -0.324; in series [1] (pH 6, modulator: ogerin), -0.417; in series [1] (pH 6.5, modulator: ogerin), -0.229.
In the case of F36A, the cAMP reporter score in series [1] (pH 5.5) was 0.331; in series [1] (pH 6), -0.172; in series [1] (pH 6, modulator: ogerin), 0.234; in series [1] (pH 6.5, modulator: ogerin), 0.148. For the same variant, in series [2], the surface expression score was -1.47.
Taken in the same sequence, the figures for F36I were -0.775, 0.958, -1.1, 1.13 and -1.52.
The like results for F36E were, in that order, -1.64, -0.704, -1.17, -0.421 and -2.5.
Consider F36R, for which the cAMP reporter score in series [1] (pH 5.5) was -1.44; in series [1] (pH 6.5, modulator: ogerin), -1.21. Moreover, the surface expression score in series [2] is -2.21.
As for F36H, the cAMP reporter score was -1.53 in series [1] (pH 5.5); -1.85 in series [1] (pH 6); -0.866 in series [1] (pH 6.5, modulator: ogerin). In addition, the surface expression score in series [2] was -2.78.
F36C: the cAMP reporter score in series [1] (pH 5.5) was -1.08; in series [1] (pH 6), -0.552; in series [1] (pH 6, modulator: ogerin), -0.998; in series [1] (pH 6.5, modulator: ogerin), -0.476. Also, in series [2], the surface expression score was -2.69.
With F36D, the cAMP reporter score in series [1] (pH 5.5) was -1.18; in series [1] (pH 6), -1.46; in series [1] (pH 6, modulator: ogerin), -1.39; in series [1] (pH 6.5, modulator: ogerin) it was -0.862. In series [2], the surface expression score was -2.19.
Take F36W: the cAMP reporter score was -0.317 in series [1] (pH 5.5); -0.972 in series [1] (pH 6); -1.29 in series [1] (pH 6, modulator: ogerin); -0.548 in series [1] (pH 6.5, modulator: ogerin).
Regarding F36T, the cAMP reporter score in series [1] (pH 5.5) was -0.979; in series [1] (pH 6) it was 0.034; in series [1] (pH 6, modulator: ogerin), -0.733; in series [1] (pH 6.5, modulator: ogerin), -0.463. Moreover, in series [2], the surface expression score was -1.91.
As to F36K, the cAMP reporter score in series [1] (pH 5.5) is -1.61; in series [1] (pH 6), -1.55; in series [1] (pH 6, modulator: ogerin), -1.53; in series [1] (pH 6.5, modulator: ogerin) it was -1.52. In series [2], the surface expression score is -3.43.

These data come from the GPR68 mutational scans of Howard et al. (2025).
